Source: PubChem BioAssay AID624417 (National Center for Advancing Translational Sciences (NCATS), 2012)
Several values for one entry are separate records, joined by “and”; a condition that tells them apart may be missing. Identical values can stand only once. Among all 410,000 compounds or so, about 6,400 (1.6%) were called active. The inconclusive results got no clear call from the source; some entries with a clear call stand among them for comparison. Calls follow the shape of the dose curve; as a rule, active = well fitted inhibition curve with a large enough effect; inconclusive = small, poorly fitted or top-dose-only effect; inactive = no such curve, though single readings can be large or run the other way. Potencies of inconclusive entries are doubtful fits and often do not repeat.
% is scaled to controls: 0 for no effect and ±100 for the full control effect; potency is read from the fitted curve at half-maximal effect; tags tell the direction and shape of the fitted curve.
Also: nearly all actives have a fitted effect of over 55% in size.

These molecules were tested against Glucagon-like peptide 1 receptor (Homo sapiens) (UniProt P43220) (assay: qHTS of GLP-1 Receptor Inverse Agonists (Inhibition Mode)). Conditions: HEK293 GLP-1R CRE-luciferase, luminescence, 24 h, GLP-1R form is constitutively active; activity change, negative = inhibition: at 38.3 µM (top of the series) unless noted.
UniProt P43220, sequence (P43220 whole entry, looked up): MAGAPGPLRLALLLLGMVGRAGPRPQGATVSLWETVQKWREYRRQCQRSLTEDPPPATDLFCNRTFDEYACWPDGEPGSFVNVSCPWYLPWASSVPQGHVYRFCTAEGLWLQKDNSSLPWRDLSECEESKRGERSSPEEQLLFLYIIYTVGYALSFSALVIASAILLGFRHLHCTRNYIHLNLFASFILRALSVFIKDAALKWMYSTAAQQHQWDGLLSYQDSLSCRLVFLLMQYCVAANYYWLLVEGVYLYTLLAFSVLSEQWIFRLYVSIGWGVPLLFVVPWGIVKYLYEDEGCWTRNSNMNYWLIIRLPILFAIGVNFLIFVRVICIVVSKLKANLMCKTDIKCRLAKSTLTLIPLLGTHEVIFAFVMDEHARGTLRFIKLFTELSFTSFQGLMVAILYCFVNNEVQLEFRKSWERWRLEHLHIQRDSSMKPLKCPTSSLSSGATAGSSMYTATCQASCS
In short: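 Luminescence readout: a drop in cAMP-driven luciferase signal flags inverse agonism at a constitutively active GLP-1R stably expressed in HEK293. Compound exposure lasted 24 hr at 37 deg C, 5% CO2.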
In the case of `CCOC(=O)c1ccc(S(=O)(=O)NNc2ccc(C(F)(F)F)cn2)cc1`, the Potency is reported as inconclusive: 28.2 µM [inhibitor, single point]. With `CC(=O)OCC#CCSc1nc2ccccc2n1C` the Potency was “inactive”. For `COc1ccc(S(=O)(=O)N2CCCCC2)cc1NC(=O)CCCOc1ccccc1`, the Potency was inconclusive: 28.2 µM [inhibitor, single point]. In the case of `CCc1ccccc1N(C)C(=O)c1cc2c(s1)-c1c(C)cccc1OC2`, the Potency is reported as inconclusive: 12.6 µM [inhibitor, partial curve, poor fit]. In the case of `O=C(CSc1nnnn1-c1ccc2c(c1)CCC2)Nc1ccc2c(c1)OCCO2`, the Potency is reported as inconclusive: 28.2 µM [inhibitor, single point]. `COc1ccc(NC(=O)c2sc(=O)n(Cc3ccc4ccccc4c3)c2C)cc1OC` was tested, and the Potency was inconclusive: 22.4 µM [inhibitor, single point]. In the case of `COc1ccc(/C=C/C(=O)C2(O)CCCCC2)cc1OC`, the Potency is reported as inconclusive: 12.6 µM [inhibitor, partial curve]. In the case of `CC(C)NS(=O)(=O)c1ccc(OCC(=O)N2CCN(c3cccc(Cl)c3)CC2)cc1`, the Potency is reported as inconclusive: 11.2 µM [inhibitor, single point]. With `Cc1ccc(NC(=O)C2CCN(S(=O)(=O)c3c(C)noc3/C=C/c3ccco3)CC2)nc1` the Potency was inconclusive: 15.8 µM [inhibitor, partial curve, poor fit]. In the case of `COc1ccc(-c2csc3ncnc(N4CCN(CCO)CC4)c23)cc1`, the Potency is reported as inconclusive: 5.01 µM [inhibitor, partial curve]. For `Cc1ccccc1NC(=S)N(C)Cc1cn(C)c2ccccc12`, the Potency was inconclusive: 10 µM [inhibitor, partial curve, poor fit]. With `CCc1ccc(Nc2n[n+](-c3ccccc3)c(-c3cccc(C)c3)s2)cc1` the Potency was inconclusive: 28.2 µM [inhibitor, single point]. `COc1cccc(C2C(C#N)=C(N)OC3=C2C(=O)CC(c2ccco2)C3)c1OCc1ccc(F)cc1` (stereo not drawn) was tested, and the Potency was inconclusive: 28.2 µM [inhibitor, single point]. In the case of `CCc1sc(C(=O)Nc2ccc3nc(C)sc3c2)cc1C`, the Potency is reported as inconclusive: 11.2 µM [inhibitor, single point]. `CCC(c1nnnn1Cc1ccc(F)cc1)N(CCCO)Cc1cc2cc3c(cc2[nH]c1=O)OCO3` (stereo not drawn) was tested, and the Potency was “inactive”. In the case of `O=C(N/N=C/c1ccc(O)cc1)NC12CC3CC(CC(C3)C1)C2`, the activity change, negative = inhibition is reported as inconclusive: -79.1% [inhibitor]. For `Cc1ccc2sc(N(CCCN(C)C)C(=O)CCS(=O)(=O)c3ccccc3)nc2c1C`, the Potency was inconclusive: 28.2 µM [inhibitor, single point]. `CC(C)c1ccc(CN2CCC(Oc3ccc(C(=O)N4CCCC4)cc3)CC2)cc1` was tested, and the Potency was inconclusive: 20 µM [inhibitor, single point]. For `CCN(CC(=O)Nc1ccccc1C(F)(F)F)C(=O)c1ccccc1Sc1ccccc1C#N`, the Potency was inconclusive: 14.1 µM [inhibitor, single point]. With `Cc1ccc(NC(=O)C2C3C=CC4(O3)C2C(=O)N(CCCN2CCCCC2)C4C(=O)NC2CCCCC2)cc1Cl` (stereo not drawn) the Potency was inconclusive: 31.6 µM [inhibitor, single point]. In the case of `Cc1ccc(N(Cc2ccccc2)C(=O)c2cc(S(=O)(=O)N3CCOCC3)ccc2F)cc1`, the Potency is reported as inconclusive: 10 µM [inhibitor, partial curve]. In the case of `O=C(CN1C(=O)COc2ccc(S(=O)(=O)N3CCCCCC3)cc21)N1CCN(c2cccc(Cl)c2)CC1`, the Potency is reported as inconclusive: 14.1 µM [inhibitor, partial curve, poor fit]. With `Cc1nc(Nc2ccc3c(c2)OCCO3)c2nnn(Cc3ccccc3Cl)c2n1` the Potency was active: 3.55 µM. With `Oc1ccc(/C=N/Nc2nc(-c3cccnc3)nc3ccccc23)c(O)c1` the Potency was inconclusive: 10 µM [inhibitor, partial curve, poor fit]. `COCCCNC(=S)N1CCN(c2nc(C)nc3sc4c(c23)CCCC4)CC1` was tested, and the Potency was inconclusive: 12.6 µM [inhibitor, single point]. In the case of `O=C(O)c1cccc(NC(=O)c2cccc(NC(=O)C3CCCO3)c2)c1` (stereo not drawn), the Potency is reported as inconclusive: 20 µM [inhibitor, partial curve, poor fit]. With `Cc1cccc(C(=O)OCC(=O)NC23CC4CC(CC(C4)C2)C3)c1O` the Potency was inconclusive: 22.4 µM [inhibitor, single point]. `O=C(Nn1nnnc1Nc1ccccc1)C12CC3CC(CC(C3)C1)C2` was tested, and the Potency was inconclusive: 31.6 µM [inhibitor, single point]. In the case of `Cc1cc(C)c2c(CN3CCN(Cc4ccccc4)CC3)cc(=O)oc2c1C`, the Potency is reported as inconclusive: 22.4 µM [inhibitor, partial curve, poor fit]. With `O=C(CSc1nc(-c2ccccc2)[nH]c1-c1ccc(F)cc1)NC1CCCC1` the Potency was inconclusive: 3.16 µM [inhibitor, single point]. With `COc1ccccc1C(=O)N1CCC(c2c[nH]c3ccccc23)(c2c[nH]c3ccccc23)CC1` the Potency was inconclusive: 10 µM [inhibitor, partial curve]. `Cc1ccc(OCC(=O)O/N=C(\N)c2ccccn2)cc1` was tested, and the Potency was “inactive”. With `CC(C)c1ccc(S(=O)(=O)Nc2cc3c(cc2NCc2ccccc2)n(C)c(=O)n3C)cc1` the Potency was “inactive”. For `COc1ccc(CCNC(=O)c2cc3cccc4c3n2CC(C)S4)c(OC)c1OC` (stereo not drawn), the Potency was inconclusive: 10 µM [inhibitor, partial curve, poor fit]. With `CCCC(=O)Nc1c(C(=O)N2CCN(c3ccccc3)CC2)oc2ccccc12` the Potency was inconclusive: 2.82 µM [inhibitor, single point]. `CCCN(CCC)C(=O)c1c[nH]c2ccc(S(=O)(=O)N(C)c3ccc(Cl)cc3)cc2c1=O` was tested, and the Potency was “inactive”. `CC(C)CCC1CC(CSC(=N)N)OC1=O` (stereo not drawn) was tested, and the Potency was inconclusive: 10 µM [inhibitor, partial curve, poor fit]. In the case of `O=C(Nc1ccccc1)NN(C(=O)CCl)c1ccccc1`, the Potency is reported as inconclusive: 6.31 µM [inhibitor, partial curve, poor fit]. With `CCOC(=O)c1c(NC(=O)Cc2cccs2)sc(C(=O)N2CCCCC2)c1C` the Potency was inconclusive: 8.91 µM [inhibitor, single point]. `C/C(=N\Nc1cccc2cccnc12)c1ccc(N)cc1` was tested, and the Potency was inconclusive: 10 µM [inhibitor, single point]. `CCOC(=O)/C=C/C(=O)Nc1nccs1` was tested, and the Potency was inconclusive: 28.2 µM [inhibitor, single point]. With `Cc1ccc(CCNC(=O)C2CCN(C(=O)c3sccc3-n3cccc3)CC2)cc1` the Potency was inconclusive: 14.1 µM [inhibitor, single point]. In the case of `O=C(CCS(=O)(=O)c1ccc(Br)cc1)N1CCN(c2ccccc2Cl)CC1`, the Potency is reported as inconclusive: 20 µM [inhibitor, single point]. `C=CCOc1c(Cl)cc(CNCCCN2CCOCC2)cc1OC` was tested, and the Potency was inconclusive: 5.62 µM [inhibitor, full curve, poor fit]. In the case of `COc1ccc(NC(=O)NCCC2=CCCCC2)cc1`, the Potency is reported as “inactive”. For `Cn1nc(C(F)(F)F)c2cc(NC(=O)OCC(C)(C)C)sc21`, the Potency was inconclusive: 12.6 µM [inhibitor, partial curve, poor fit]. With `CC(C)[C@H](Nc1nc(-c2ccccc2)nc2c1oc1ccccc12)C(=O)O` the Potency was inconclusive: 6.31 µM [inhibitor, partial curve, poor fit]. For `Cc1ccsc1C(=O)N/N=C/c1ccc2c(c1)OCO2`, the Potency was inconclusive: 28.2 µM [inhibitor, single point]. `CC(C)C(C(=O)NC1=NCCS1)c1ccc(Cl)cc1` (stereo not drawn) was tested, and the Potency was inconclusive: 31.6 µM [inhibitor, partial curve, poor fit]. For `COC(=O)/C(=N\Nc1ccccc1)Sc1nnc(-c2ccc(OC)cc2)n1C`, the Potency was “inactive”. With `COc1ccc(C(CNC(=O)COc2cc(C)c(Cl)c(C)c2)N2CCCCC2)cc1` (stereo not drawn) the Potency was “inactive”. `O=C(CC(=O)N/N=C\c1ccc(F)cc1)NCCc1ccccc1` was tested, and the Potency was inconclusive: 11.2 µM [inhibitor, partial curve, poor fit]. `COc1ccc2nc(N/C(N)=N/C(=S)Nc3ccccc3)nc(C)c2c1` was tested, and the Potency was inconclusive: 28.2 µM [inhibitor, single point]. With `O=C(CC1SC(=NCCc2ccccc2)N(/N=C/c2cccs2)C1=O)Nc1ccc(Cl)cc1` (stereo not drawn) the Potency was inconclusive: 3.55 µM [inhibitor, full curve, poor fit]. `CCCOc1ncnc2c1[nH]c1ccc(OC)cc12` was tested, and the Potency was “inactive”. With `C/C=C/c1ccc(OCCOCCOc2cccc3cccnc23)c(OC)c1` the Potency was inconclusive: 12.6 µM [inhibitor, partial curve, poor fit]. With `CC1C(=O)N(Cc2cn(Cc3ccco3)nn2)CCS(=O)(=O)N1Cc1ccc(-c2ccc(F)cc2Cl)cc1` (stereo not drawn) the Potency was inconclusive: 11.2 µM [inhibitor, single point]. In the case of `Cc1onc(-c2ccccc2Cl)c1-c1nc(-c2ccccn2)no1`, the Potency is reported as inconclusive: 28.2 µM [inhibitor, single point]. In the case of `CCc1ccc(NC(=O)c2cnccn2)cc1`, the Potency is reported as inconclusive: 28.2 µM [inhibitor, single point]. In the case of `Cc1ccc(Cn2cc(S(=O)(=O)c3ccccc3)c(=O)c3cc(F)c(N4CCOCC4)cc32)cc1`, the Potency is reported as “inactive”. For `COc1ccc(CC(=O)NC(C)C2COc3ccccc3O2)cc1OC` (stereo not drawn), the Potency was “inactive”. For `Cc1nc2ccccc2c2oc(C(=O)N3CCc4ccccc4C3)cc12`, the Potency was inconclusive: 28.2 µM [inhibitor, single point]. With `COc1ccc(NC(=O)C(c2ccc(OC)cc2)N(C)C(=O)Cc2cccs2)cc1` (stereo not drawn) the Potency was inconclusive: 15.8 µM [inhibitor, partial curve, poor fit] and inconclusive: 11.2 µM [inhibitor, partial curve, poor fit].
